In US20250346678A1 (published 2025):

T1: human OX40 (human, UniProt P43489 29-214)
T1 chain: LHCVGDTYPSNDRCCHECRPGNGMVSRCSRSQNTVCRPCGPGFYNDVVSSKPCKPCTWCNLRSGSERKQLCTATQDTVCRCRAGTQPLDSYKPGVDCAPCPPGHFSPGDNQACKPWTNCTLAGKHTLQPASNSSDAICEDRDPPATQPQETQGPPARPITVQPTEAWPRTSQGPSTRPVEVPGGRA


Legend:
human PD-L1 = human PD-L1 (human, UniProt Q9NZQ7 partial chain); assay: ELISA
human OX40 = molecular target: T1, human OX40; assay: ELISA

human PD-L1, sequence (Q9NZQ7 19-238): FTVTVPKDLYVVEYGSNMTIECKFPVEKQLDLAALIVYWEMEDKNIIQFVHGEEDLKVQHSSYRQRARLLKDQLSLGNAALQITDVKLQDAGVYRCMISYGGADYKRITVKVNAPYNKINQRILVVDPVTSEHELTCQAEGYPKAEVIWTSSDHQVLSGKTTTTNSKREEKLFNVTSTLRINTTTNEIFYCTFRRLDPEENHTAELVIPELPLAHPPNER

Binder | EC50 (human PD-L1) | EC50 (human OX40)
Anti-PD-L1-OX40 Ab-V11 (bispecific antibody) heavy: QVQLVQSGAEVKKPGSSVKVSCKASGGTFRRYSISWVRQAPGQGLEWMGGIIPVFGAAKYAQKFQGRVTITADEFTSTAYMELSSLTSEDTAVYYCALSGDSDAFDIWGQGTMVTVSSASTKGPSVFPLAPCSRSTSESTAALGCLVKDYFPEPVTVSWNSGALTSGVHTFPAVLQSSGLYSLSSVVTVPSSSLGTKTYTCNVDHKPSNTKVDKRV[letters of human IgG4 Fc with S228P (EU numbers) not shown]GGGGSGGGGSYVLTQPPSVSVTPGETARIACGGNNLESKIVSWYQQKPGQAPVLVIFYDTDRPSGISERFSGSNSGNTATLTISRVEAGDEADYYCQVWDSNSDHVIFGGGTKLTVLGSTSGSGKPGSGEGSTKGEVQLVESGGVVVQPGGSLRLSCAASGFTFDDYTMHWVRQAPGKGLEWVSLISWDGGSTYYADSVKGRFTISRDNSKNSLYLQMNSLRTEDTALYYCASIYDPPPGSRSALDAFDIWGQGTMVTVSSA light: QSVLTQPPSASGTPGQRVTISCSGSSSNIGSNTVNWYQQLPGTAPKLLIYSNNQRPSGVPDRFSGSKSGTSASLAISGLQSEDEADYYCATWDDSLNAWVVFGGGTKLTVLGQPKAAPSVTLFPPSSEELQANKATLVCLISDFYPGAVTVAWKADSSPVKAGVETTTPSKQSNNKYAASSYLSLTPEQWKSHRSYSCQVTHEGSTVEKTVAPTECS | 0.168 nM | 0.134 nM
Anti-PD-L1-OX40 Ab-V5 (bispecific antibody) heavy: QVQLVQSGAEVKKPGSSVKVSCKASGGTFRRYSISWVRQAPGQGLEWMGGIIPVFGAAKYAQKFQGRVTITADEFTSTAYMELSSLTSEDTAVYYCALSGDSDAFDIWGQGTMVTVSSASTKGPSVFPLAPCSRSTSESTAALGCLVKDYFPEPVTVSWNSGALTSGVHTFPAVLQSSGLYSLSSVVTVPSSSLGTKTYTCNVDHKPSNTKVDKRV[letters of human IgG4 Fc with S228P (EU numbers) not shown]GGGGSGGGGSYELTQPPSVSVTPGQTARIACGGNNLESKIVSWYQQKPGQAPVLVIFYDTDRPSGISERFSGSNSGNTATLTISRVEAGDEADYYCQVWDSNSDHVIFGGGTKLTVLGSTSGSGKPGSGEGSTKGEVQLVESGGVVVQPGGSLRLSCAASGFTFDDYTMHWVRQAPGKGLEWVSLISWDGGSTYYADSVKGRFTISRDNSKNSLYLQMNSLRTEDTALYYCASIYDPPPGSRSALDAFDIWGQGTMVTVSSA light: QSVLTQPPSASGTPGQRVTISCSGSSSNIGSNTVNWYQQLPGTAPKLLIYSNNQRPSGVPDRFSGSKSGTSASLAISGLQSEDEADYYCATWDDSLNAWVVFGGGTKLTVLGQPKAAPSVTLFPPSSEELQANKATLVCLISDFYPGAVTVAWKADSSPVKAGVETTTPSKQSNNKYAASSYLSLTPEQWKSHRSYSCQVTHEGSTVEKTVAPTECS | 0.156 nM | 0.125 nM

Continued by falling EC50 (human PD-L1), values first:

EC50 (human PD-L1) | EC50 (human OX40) | Binder
0.152 nM | 0.128 nM | Anti-PD-L1-OX40 Ab-V8 (bispecific antibody) heavy: QVQLVQSGAEVKKPGSSVKVSCKASGGTFRRYSISWVRQAPGQGLEWMGGIIPVFGAAKYAQKFQGRVTITADEFTSTAYMELSSLTSEDTAVYYCALSGDSDAFDIWGQGTMVTVSSASTKGPSVFPLAPCSRSTSESTAALGCLVKDYFPEPVTVSWNSGALTSGVHTFPAVLQSSGLYSLSSVVTVPSSSLGTKTYTCNVDHKPSNTKVDKRV[letters of human IgG4 Fc with S228P (EU numbers) not shown]GGGGSGGGGSYVLTQPPSVSVAPGKTARITCGGNNLESKIVSWYQQKPGQAPVLVIFYDTDRPSGIPERFSGSNSGNTATLTISRVEAGDEADYYCQVWDSNSDHVIFGGGTKLTVLGSTSGSGKPGSGEGSTKGEVQLVESGGIVVQPGGSLRLSCAASGFTFDDYTMHWVRQAPGKGLEWVSLISWDGGSTYYADSVKGRFTISRDNSKNSLYLQMNSLRTEDTALYYCASIYDPPPGSRSALDAFDIWGQGTMVTVSSA light: QSVLTQPPSASGTPGQRVTISCSGSSSNIGSNTVNWYQQLPGTAPKLLIYSNNQRPSGVPDRFSGSKSGTSASLAISGLQSEDEADYYCATWDDSLNAWVVFGGGTKLTVLGQPKAAPSVTLFPPSSEELQANKATLVCLISDFYPGAVTVAWKADSSPVKAGVETTTPSKQSNNKYAASSYLSLTPEQWKSHRSYSCQVTHEGSTVEKTVAPTECS
0.144 nM | 0.128 nM | Anti-PD-L1-OX40 Ab-V4 (antibody) chain 1: QVQLVQSGAEVKKPGSSVKVSCKASGGTFRRYSISWVRQAPGQGLEWMGGIIPVFGAAKYAQKFQGRVTITADEFTSTAYMELSSLTSEDTAVYYCALSGDSDAFDIWGQGTMVTVSSASTKGPSVFPLAPCSRSTSESTAALGCLVKDYFPEPVTVSWNSGALTSGVHTFPAVLQSSGLYSLSSVVTVPSSSLGTKTYTCNVDHKPSNTKVDKRV[letters of human IgG4 Fc with S228P (EU numbers) not shown]GGGGSGGGGSYVLTQPPSVSVTPGKTARIACGGNNLESKIVSWYQQKPGQAPVLVIFYDTDRPSGISERFSGSNSGNTATLTISRVEAGDEADYYCQVWDSNSDHVIFGGGTKLTVLGSTSGSGKPGSGEGSTKGEVQLVESGGVVVQPGGSLRLSCAASGFTFDDYTMHWVRQAPGKGLEWVSLISWDGGSTYYADSVKGRFTISRDNSKNSLYLQMNSLRTEDTALYYCASIYDPPPGSRSALDAFDIWGQGTMVTVSSA chain 2: QSVLTQPPSASGTPGQRVTISCSGSSSNIGSNTVNWYQQLPGTAPKLLIYSNNQRPSGVPDRFSGSKSGTSASLAISGLQSEDEADYYCATWDDSLNAWVVFGGGTKLTVLGQPKAAPSVTLFPPSSEELQANKATLVCLISDFYPGAVTVAWKADSSPVKAGVETTTPSKQSNNKYAASSYLSLTPEQWKSHRSYSCQVTHEGSTVEKTVAPTECS
0.14 nM | 0.235 nM | Anti-PD-L1-OX40 Ab-V10 (bispecific antibody) heavy: QVQLVQSGAEVKKPGSSVKVSCKASGGTFRRYSISWVRQAPGQGLEWMGGIIPVFGAAKYAQKFQGRVTITADEFTSTAYMELSSLTSEDTAVYYCALSGDSDAFDIWGQGTMVTVSSASTKGPSVFPLAPCSRSTSESTAALGCLVKDYFPEPVTVSWNSGALTSGVHTFPAVLQSSGLYSLSSVVTVPSSSLGTKTYTCNVDHKPSNTKVDKRV[letters of human IgG4 Fc with S228P (EU numbers) not shown]GGGGSGGGGSYVLTQPPSVSVAPGQTARITCGGNNLESKIVSWYQQKPGQAPVLVIFYDTDRPSGIPERFSGSNSGNTATLTISRVEAGDEADYYCQVWDSNSDHVVFGGGTKLTVLGSTSGSGKPGSGEGSTKGEVQLVESGGGVVQPGGSLRLSCAASGFTFDDYTMHWVRQAPGKGLEWVSLISWDGGSTYYADSVKGRFTISRDNSKNSLYLQMNSLRTEDTALYYCASIYDPPPGSRSALDAFDIWGQGTMVTVSSA light: QSVLTQPPSASGTPGQRVTISCSGSSSNIGSNTVNWYQQLPGTAPKLLIYSNNQRPSGVPDRFSGSKSGTSASLAISGLQSEDEADYYCATWDDSLNAWVVFGGGTKLTVLGQPKAAPSVTLFPPSSEELQANKATLVCLISDFYPGAVTVAWKADSSPVKAGVETTTPSKQSNNKYAASSYLSLTPEQWKSHRSYSCQVTHEGSTVEKTVAPTECS
